Data reported in US20100081613A1, “METHODS AND COMPOSITIONS FOR ENHANCING MEMORY” (THE TRUSTEES OF COLUMBIA UNIVERSITY IN THE CITY OF NEW YORK, priority 2006, published 2010).

Molecular target: rodent Aβ42 (Mus musculus; Rattus norvegicus)
Test: cell-based or functional assay

anti-rodent Aβ monoclonal antibody m3.2 showed a post-tetanic potentiation (PTP) in the presence of D-APV, m3.2 mAbs 2 µg/ml (% of PTP compared to vehicle) of 71.
